Here are results for 26 compounds from the antibiotic and cytotoxicity screens of Wong et al. (2023).

One test relates to HSkMC. Briefly: cytotoxicity call (relative viability < 0.9). To be noted: 10 µM.
The next test concerns HepG2. Briefly: cytotoxicity call (relative viability < 0.9). The settings on record: 10 µM.
Another test has as its system S. aureus RN4220. Briefly: growth inhibition call (relative growth <= 0.2). The settings on record: 50 µM.

Some of the results follow.

On to `COc1ccc(S(=O)(=O)N(C)C[C@@H]2Oc3ccc(NC(=O)c4ccncc4)cc3C(=O)N([C@@H](C)CO)C[C@H]2C)cc1`, for which the cytotoxicity call in the test on HSkMC and in the test with HepG2 was “inactive” in each case. Moreover, the growth inhibition call with S. aureus RN4220 was “inactive”.

For `O=C(/C=C/c1ccc(O)c(O)c1)O[C@@H]1C[C@](O)(C(=O)O)C[C@@H](OC(=O)/C=C/c2ccc(O)c(O)c2)[C@H]1OC(=O)/C=C/c1ccc(O)c(O)c1`, the cytotoxicity call in the test on HSkMC and in the test with HepG2 was “inactive” each time. In the test with S. aureus RN4220, the growth inhibition call is “inactive”.

On to `Cc1noc(C)c1S(=O)(=O)Nc1ccc2c(c1)C(=O)N([C@@H](C)CO)C[C@@H](C)[C@H](CN(C)C)OCCCC[C@@H](C)O2`, for which the cytotoxicity call with HSkMC and with HepG2 was “inactive” throughout. Further, the growth inhibition call in the test on S. aureus RN4220 is “inactive”.

For the compound `C[C@@H]1CCCCO[C@@H](CN(C)Cc2ccncc2)[C@@H](C)CN([C@@H](C)CO)C(=O)c2cc(NC(=O)Nc3ccccc3)ccc2O1`, the cytotoxicity call in the test with HSkMC and with HepG2 was “inactive” in each case. The growth inhibition call in the test on S. aureus RN4220 is “inactive”.

For the compound `C[C@H]1CN([C@@H](C)CO)C(=O)c2cccc(NS(C)(=O)=O)c2O[C@H]1CN(C)Cc1ccc(C(=O)O)cc1`, the cytotoxicity call with HSkMC and with HepG2 was “inactive” each time. Also, the growth inhibition call with S. aureus RN4220 was “inactive”.

Turning to `CO[C@@]12[C@H](COC(N)=O)C3=C(C(=O)C(C)=C(N)C3=O)N1C[C@@H]1N[C@@H]12`, the cytotoxicity call in the test on HSkMC and in the test on HepG2 was “inactive” each time. For the same compound, the growth inhibition call in the test on S. aureus RN4220 was “inactive”.

For the compound `Cn1cc(S(=O)(=O)N2CCN(Cc3ccccc3)CC2)c(=O)n(C)c1=O`, the cytotoxicity call in the test on HSkMC and in the test on HepG2 was “inactive” throughout. In the test with S. aureus RN4220, the growth inhibition call is “inactive”.

Consider `CCS(=O)(=O)N1C[C@]2(CN(Cc3cc(ccc3F)F)[C@@H](CO)c3c2c2ccc(cc2n3C)OC)C1`, for which the cytotoxicity call in the test with HSkMC and with HepG2 was “inactive” throughout. Also, the growth inhibition call in the test on S. aureus RN4220 was “inactive”.

As for `C[C@H]1CN([C@@H](C)CO)C(=O)c2c(c3ccccc3n2C)-c2ccccc2CO[C@H]1CN(C)Cc1ccc(Oc2ccccc2)cc1`, the cytotoxicity call with HSkMC and with HepG2 was “inactive” throughout. The growth inhibition call in the test with S. aureus RN4220 is “inactive”.

On to `C[C@H]1CN([C@@H](C)CO)C(=O)c2cc(NC(=O)Nc3ccccc3)ccc2O[C@@H]1CN(C)CC1CCCCC1`, for which the cytotoxicity call in the test with HSkMC and with HepG2 was “inactive” in each case. The growth inhibition call in the test with S. aureus RN4220 is “inactive”.

With `Cc1noc(C)c1NC(=O)Nc1ccc2c(c1)C(=O)N([C@@H](C)CO)C[C@@H](C)[C@H](CN(C)Cc1ccc(C(=O)Nc3ccccc3N)cc1)O2`, the cytotoxicity call in the test on HSkMC and with HepG2 was “inactive” throughout. The growth inhibition call with S. aureus RN4220 was “inactive”.

For `C[C@H](N)CCCP(=O)(O)O`, the cytotoxicity call with HSkMC and in the test on HepG2 was “inactive” throughout. Further, the growth inhibition call with S. aureus RN4220 was “inactive”.

Take `COc1cccc(S(=O)(=O)N(C)C[C@H]2Oc3ncc(C#CCN(C)C)cc3C(=O)N([C@H](C)CO)C[C@@H]2C)c1`: the cytotoxicity call in the test on HSkMC and in the test with HepG2 was “inactive” throughout. Also, in the test with S. aureus RN4220, the growth inhibition call is “inactive”.

On to `O=C(C[C@@H]1C[C@H]2c3cc(NS(=O)(=O)c4ccccc4)ccc3O[C@H]2[C@@H](CO)O1)NC1CCCCC1`, for which the cytotoxicity call in the test with HSkMC and in the test on HepG2 was “inactive” in each case. The growth inhibition call in the test with S. aureus RN4220 was “inactive”.

As to `Cc1noc(C)c1NC(=O)Nc1ccc2c(c1)C(=O)N([C@H](C)CO)C[C@@H](C)[C@H](CN(C)Cc1ccncc1)OCCCC[C@H](C)O2`, the cytotoxicity call in the test with HSkMC and with HepG2 was “inactive” in each case. Further, the growth inhibition call in the test with S. aureus RN4220 is “inactive”.

Turning to `C[C@H]1CN([C@@H](C)CO)C(=O)Cc2cc(NC(=O)Nc3ccc(C#N)cc3)ccc2O[C@H]1CN(C)S(=O)(=O)c1ccc(Oc2ccccc2)cc1`, the cytotoxicity call in the test with HSkMC and in the test with HepG2 was “inactive” each time. In the test with S. aureus RN4220, the growth inhibition call was “inactive”.

Consider `CN1CCN(C(=O)C[C@@H]2C[C@H]3c4cc(NS(=O)(=O)c5ccc(F)cc5)ccc4O[C@H]3[C@@H](CO)O2)CC1`, for which the cytotoxicity call with HSkMC and with HepG2 was “inactive” throughout. For the same compound, the growth inhibition call with S. aureus RN4220 is “inactive”.

For the compound `Cn1cnc(S(=O)(=O)N[C@H]2CC[C@H](CC(=O)Nc3ccccc3)O[C@H]2CO)c1`, the cytotoxicity call with HSkMC and in the test with HepG2 was “inactive” in each case. In the test with S. aureus RN4220, the growth inhibition call was “inactive”.

Consider `C[C@@H]1CN([C@@H](C)CO)C(=O)Cc2cc(NS(C)(=O)=O)ccc2O[C@@H]1CN(C)C(=O)Nc1ccc(F)cc1`, for which the cytotoxicity call with HSkMC and in the test on HepG2 was “inactive” throughout. For the same compound, the growth inhibition call with S. aureus RN4220 was “inactive”.

Regarding `C[C@H]1CN([C@@H](C)CO)S(=O)(=O)c2ccc(-c3cccnc3)cc2O[C@H]1CN(C)C(=O)c1ccc2c(c1)OCO2`, the cytotoxicity call in the test with HSkMC and with HepG2 was “inactive” throughout. Besides, the growth inhibition call in the test on S. aureus RN4220 is “inactive”.

For `C[C@@H]1CCCCO[C@@H](CN(C)Cc2ccc3c(c2)OCO3)[C@H](C)CN([C@H](C)CO)C(=O)c2cc(NC(=O)Nc3ccc(F)cc3)ccc2O1`, the cytotoxicity call with HSkMC was “inactive”. Also, the cytotoxicity call in the test with HepG2 was “active”. The growth inhibition call in the test with S. aureus RN4220 was “inactive”.

With `CC(C)NC(=O)N(C)C[C@H]1Oc2ccc(NC(=O)CCCN(C)C)cc2C(=O)N([C@H](C)CO)C[C@H]1C`, the cytotoxicity call in the test on HSkMC and in the test on HepG2 was “inactive” throughout. Also, in the test on S. aureus RN4220, the growth inhibition call is “inactive”.

For `COc1ccc2c3c(n(c2c1)C)[C@@H](CO)N(C[C@]13CCN(CC1)Cc1ccncc1)C(=O)CN1CCOCC1`, the cytotoxicity call in the test with HSkMC and with HepG2 was “inactive” in each case. Further, the growth inhibition call with S. aureus RN4220 was “inactive”.

Take `C[C@@H]1CN([C@@H](C)CO)C(=O)c2cccc(NC(=O)NC3CCCCC3)c2O[C@@H]1CN(C)C(=O)Nc1cccc2ccccc12`: the cytotoxicity call in the test on HSkMC (human skeletal muscle cells) and in the test with HepG2 was “inactive” in each case. Besides, the growth inhibition call in the test with S. aureus RN4220 is “inactive”.

In the case of `COCC#Cc1ccc2c(c1)O[C@@H](CN(C)C(=O)c1ccccc1)[C@H](C)CN([C@H](C)CO)S2(=O)=O`, the cytotoxicity call with HSkMC and with HepG2 was “inactive” each time. Besides, the growth inhibition call with S. aureus RN4220 was “inactive”.

Regarding `CCS(=O)(=O)NCC[C@@H]1CC[C@@H](NS(=O)(=O)c2cccc(F)c2)[C@@H](CO)O1`, the cytotoxicity call in the test with HSkMC and with HepG2 was “inactive” throughout. Besides, the growth inhibition call in the test on S. aureus RN4220 was “inactive”.
